67 sequences from the supplement of paper PMC10126150 can be followed below.

Values marked as one replicate rest on one cluster of the flow cell; about a third of the high ones do not repeat.

For the data set, the system named is ATP. In words: switch fluorescence ratio, 500 uM ATP over buffer (Cy3 cluster intensity, sum of 5 cycles each) (fold (ratio)); higher = stronger signal-on switching upon ATP binding; sequences stand for … in TCGTCGGCAGCGTCAGATGTGTATAAGAGACAGTTTTTTTTTTTTTTTTTTTTTTTTT…TC. The conditions noted are these: aptamer strand: ATP DNA aptamer (quencher-CACCTGGGGGAGTATTGCGGAGGAAGG + anchor), 100 nM annealed; ATP concentration: 500 uM; one replicate. Summed up:
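Imaging in selection buffer was followed by imaging after 15 min with 500 uM ATP at 22 °C, for Cy3-labelled switching-strand clusters annealed to 100 nM quencher-labelled ATP aptamer on a modified Illumina MiSeq flow-cell. Five of these buffer/ATP cycles ran, separated by NaOH stripping and re-annealing. The fluorescence ratio per cluster is summed target-cycle over summed buffer-cycle Cy3 intensity, averaged per switch-domain sequence; clusters outside 100-1000 RFU were removed.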
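Note: ATP exposure 15 min at 22 °C before imaging.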

Take GTTGGTCCCG: the switch fluorescence ratio turned out to be 0.996.

As for TCGTAGGAGA, the switch fluorescence ratio is 0.991.

For TTATTGTCC, the switch fluorescence ratio amounted to 1.03. For TTTACGCCTC the value was 1.1; for GCCTCGGCCT, 0.993.

For ATTGCTCATT, the switch fluorescence ratio was determined as 1.01. On to AGTATCAACC, for which the switch fluorescence ratio came to 1.02. For CGTATGAAGG the value was 0.898; for GAGCTACCGG, 0.998. For ATAACGCTGG the value was 0.97; for TTAGCCGGCT, 0.983; for CCATCCTTCG, 2.54. For ACGATTCCTC, the switch fluorescence ratio was 1.18. With TGAGTGTGAT, the switch fluorescence ratio is 0.998. AGGCAGGCGC: the switch fluorescence ratio is 1.09.

For TACCGCAGGA, the switch fluorescence ratio was 2.1. For ACCGACTTAA the value was 1.32; for AACCAGCATG, 1.05. As for GGGCCTCCCC, the switch fluorescence ratio was 1.02. For GGGGTATCTA the value was 1. For ATTGATTGG the value was 0.981; for AGGACCTAAA, 1.05; for ATTAAGTCT, 0.954. For ACACGCATCC the value was 1.7; for ACACGCTAAT, 1.26.

In the case of TAGTGCACTT, the switch fluorescence ratio was found to be 0.98.

For TCGGTAAATC, the switch fluorescence ratio came out at 1.05.

In the case of AGAACAGAAA, the switch fluorescence ratio worked out at 1.01. For TGCTTACAGA the value was 1.03; for TGGTGCTCAG, 0.995; for CACGCCGCAT, 1.83.

With CGTATTCAAA, the switch fluorescence ratio was determined as 1.

Turning to CGGAATGGAT, the switch fluorescence ratio turned out to be 0.947.

With ATTAAATCCT, the switch fluorescence ratio is 1.2.

Consider AGGCTGGGAA, for which the switch fluorescence ratio worked out at 1.01. For ATTAATTACG the value was 1.05. For TTGGTGCTTT, the switch fluorescence ratio was 0.973.

Regarding AGAAGCTTCT, the switch fluorescence ratio stood at 0.985.

For the sequence CACGTAAACC, the switch fluorescence ratio is 1.24. For GGATCGTTGG the value was 0.989; for GGCTGTGTAT, 0.969; for CCTTAAGTAA, 2.11. GACGTAAGGG: the switch fluorescence ratio is 1.1. Turning to AGGCCAGGTC, the switch fluorescence ratio was found to be 1.08. For GAAGAAACGT the value was 1.13; for GGCGTTATTG, 0.988. GCCGGGGAAT: the switch fluorescence ratio came to 0.98. For ACGAACTCAA the value was 1.77; for TTGCAATGTT, 1.08. GCGTCCAGAG: the switch fluorescence ratio came to 1.01.

With CTAACGAGAG, the switch fluorescence ratio was 1.04. Consider CACAAGTTCG, for which the switch fluorescence ratio amounted to 1.02. With AAAAAATAGA, the switch fluorescence ratio was 0.997. For TCTATGCCT the value was 1.04.

Consider TTGACTGTTG, for which the switch fluorescence ratio is 1.02. For TAGGTGTGCT the value was 1.03; for AAAGACTACG, 1.06. For GGAGACGATT the value was 1.01; for AGGAACGCTG, 0.945; for CCAGCGGCGT, 0.983.

Consider TCCGACCGGT, for which the switch fluorescence ratio was 1.01. Turning to CGCTTGGTGG, the switch fluorescence ratio was determined as 0.986. For TAAGTTAAAA the value was 0.968. For CATAACCACT the value was 1.02. For ATTCGTTTCG the value was 0.996; for TATGAAGCAT, 1.35.

As for ATGTGGCAAG, the switch fluorescence ratio is 1.
